From article PMC4336329 (PLoS ONE, 2015)
Screen size: about 310,000 compounds; about 14,000 (4.5%) showed an effect of 50% or more. The effect is printed as a negative number. Some of the results follow.

Target: human ether-à-go-go-related gene (hERG) potassium channel (human, UniProt Q12809)
Assay: primary screen, population patch clamp on CHO cells stably expressing hERG
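Also: peak tail current of the secondary pulse compared with the same well before compound.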

Sequence of human ether-à-go-go-related gene (hERG) potassium channel (Q12809 whole entry, looked up): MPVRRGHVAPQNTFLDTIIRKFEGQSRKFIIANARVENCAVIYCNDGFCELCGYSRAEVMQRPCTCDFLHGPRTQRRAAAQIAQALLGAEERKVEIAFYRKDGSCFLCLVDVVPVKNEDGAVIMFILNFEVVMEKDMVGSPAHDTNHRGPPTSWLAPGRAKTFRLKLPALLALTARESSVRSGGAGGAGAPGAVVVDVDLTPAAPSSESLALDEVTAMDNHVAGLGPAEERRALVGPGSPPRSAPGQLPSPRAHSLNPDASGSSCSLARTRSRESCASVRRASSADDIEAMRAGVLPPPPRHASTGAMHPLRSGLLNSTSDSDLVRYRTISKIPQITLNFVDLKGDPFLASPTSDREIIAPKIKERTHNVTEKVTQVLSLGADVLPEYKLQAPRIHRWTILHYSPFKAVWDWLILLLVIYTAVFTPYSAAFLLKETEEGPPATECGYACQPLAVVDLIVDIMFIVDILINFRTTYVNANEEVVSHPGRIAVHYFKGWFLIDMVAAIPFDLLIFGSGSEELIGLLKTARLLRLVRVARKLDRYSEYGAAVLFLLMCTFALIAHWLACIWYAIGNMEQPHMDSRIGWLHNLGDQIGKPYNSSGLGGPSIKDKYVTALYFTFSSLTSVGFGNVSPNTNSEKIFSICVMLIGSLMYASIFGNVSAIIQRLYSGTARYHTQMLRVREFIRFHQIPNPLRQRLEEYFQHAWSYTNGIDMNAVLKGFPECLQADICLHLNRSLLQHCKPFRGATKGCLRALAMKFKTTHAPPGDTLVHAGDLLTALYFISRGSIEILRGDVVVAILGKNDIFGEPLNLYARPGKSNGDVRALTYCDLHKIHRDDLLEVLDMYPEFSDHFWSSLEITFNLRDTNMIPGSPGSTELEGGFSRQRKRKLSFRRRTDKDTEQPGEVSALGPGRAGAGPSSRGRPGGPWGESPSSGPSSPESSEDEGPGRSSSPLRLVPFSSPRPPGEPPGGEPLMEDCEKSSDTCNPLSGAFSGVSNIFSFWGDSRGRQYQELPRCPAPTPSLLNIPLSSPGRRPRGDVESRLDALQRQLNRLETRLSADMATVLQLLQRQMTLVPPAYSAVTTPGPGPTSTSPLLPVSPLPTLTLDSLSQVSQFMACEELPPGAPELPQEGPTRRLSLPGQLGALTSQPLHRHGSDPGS

SMILES	hERG current change (%, negative = inhibition) at 10uM [%]
Cc1nn(C(C)C(=O)NCCCc2ccccc2)c(=O)c2nn(-c3ccccc3)c(C)c12 (stereo not drawn)	-20
CC(=O)CCC(=O)OCC(=O)Nc1ccc(SC(F)F)cc1	-14
CN1C2CCC1CC(OC(=O)c1ccc([N+](=O)[O-])cc1)C2 (stereo not drawn)	-67.9
CCCn1c(SCC(=O)c2ccc(CC)cc2)n[nH]c1=O	16.4
Cc1cc(C)nc(N/N=C/c2ccc(Cl)cc2)n1	-25.9
O=c1[nH]c(O)c(N=Nc2ccc([N+](=O)[O-])cc2)c(=O)[nH]1	12.1
Cc1noc(C)c1S(=O)(=O)N1Cc2ccccc2CC1C(=O)N(C)C (stereo not drawn)	-8.91
O=C(Nc1cc(S(=O)(=O)N2CCCC2)ccc1Cl)C1=COCCO1	-4.81
O=c1c2ccccc2nc(/C=C/c2ccc(O)cc2)n1-c1ccccc1O	8.48
Cn1c(CNc2ccc(F)cc2)nc2ccccc21	-2.66
CCOc1ccc(C(O)(CCC(C)C)C(CN2CCOCC2)c2ccccc2)cc1.Cl (stereo not drawn)	13.3
CC(O)C(O)C(O)C(O)C1NCCS1 (stereo not drawn)	6.81
O=C(CCN1C(=O)/C(=C/c2cccs2)SC1=S)Nc1ccccn1	22.1
Cc1cc(C)c(C#N)c(Sc2ccccc2N)n1	17.8
O=C1C2C3C=CC(C4CC34)C2C(=O)N1c1cccc2ccccc12 (stereo not drawn)	-0.113
Cc1cccc(NC(=O)c2ccc3c(c2)OCCO3)c1C	4.75
COc1ccc(C2=NN(CCC(=O)NC3CCC(C)CC3)C(=O)CC2)cc1 (stereo not drawn)	3.99
Cc1nc(C)c(C(=O)Nc2ccccc2-c2ccccc2)o1	-1.46
CCN(CC)c1ccc(N=Cc2c(O)n(-c3ccccc3)c(=O)[nH]c2=O)cc1	-35.3
COC(=O)C1=C[C@@H](C(=O)OC)C2C3=C(C(=O)C24CCCCC4)[C@H](C)n2c(=O)n(-c4ccccc4)c(=O)n2[C@@H]3C1 (stereo partly drawn)	-0.241
O=C1OCCN1C(=O)[C@H]1[C@H](c2ccc(Cl)cc2)C(c2cccc(Cl)c2)=NN1c1ccccc1	14
NC(=O)COC(=O)CNC(=O)c1ccc(Cl)cc1	12.6
CC(C)OCC(O)CN (stereo not drawn)	-6.51

SMILES	hERG current change (%, negative = inhibition) at 10uM [%]
COc1ccc(-c2n[nH]c(=S)nc2-c2ccc(OC)cc2)cc1	29.2
C=C(C)COc1ccc(-c2[nH]ncc2-c2ccccc2OC)c(O)c1	5.19
CCOC(=O)c1cnc(-n2nc(C)cc2C)nc1Nc1ccc(O)cc1	13
NNC(=O)C(=O)NCCCN1CCOCC1	25.9
CC(C)Oc1ccc(C2CCC(=O)NC2=O)cc1 (stereo not drawn)	-12.8
COc1ccc(CCNC(=O)CSc2ccc(-c3cccs3)nn2)cc1OC	-5.88
COCCn1nnnc1C(c1ccccn1)N1CCN(c2cccc(C)c2C)CC1 (stereo not drawn)	-4.23
Cc1cc(C(=O)N2CCN(c3ccc(C(F)(F)F)cn3)CC2)c(C)o1	-21.4
CCOc1cccc(C(=O)NC(=S)NCc2cccnc2)c1	-16.3
CCn1nnnc1SCC(=O)c1cc(OC)ccc1OC	-11.7
Clc1ccc(OCc2nn3c(-c4ccncc4)nnc3s2)cc1	-38.9
O=C(C1CCC1)N1CCc2cc(S(=O)(=O)NC3CCCC3)ccc21	4.18
Cc1cccc(NC(=O)COC(=O)COc2ccc3c(c2)CCC3)c1	-5.68
CC(=O)Nc1ccc(S(=O)(=O)Oc2ccc(Br)cc2C(=S)N2CCOCC2)cc1	-10.2
Cc1sc2ncnc(SCC(=O)NC(C)(C)C)c2c1C	-2.48
COc1ccccc1CNC(=O)[C@H](C)N1C(=O)N2CCc3c([nH]c4ccccc34)[C@@]2(C)C1=O	-49.2
O=C1NC(=S)N/C1=C/c1cccc([N+](=O)[O-])c1	21.8
Cl.O=S(=O)(N1CCCCCC1)N1CCNCC1	22.4
CC(=O)c1c(C)[nH]c(C(=O)N2CCN(c3ccc(F)cc3)CC2)c1C	-20.7
CS(=O)(=O)Nc1ccc(C(=O)NCCSc2ccc(Cl)cc2)cc1	-47.3
COc1ccc(S(=O)(=O)N2CCCCC2)cc1NC(=O)c1ccc2ccccc2n1	10.8
CC1(C)CC(=O)C2=C(C1)Nc1cc(Cl)ccc1S2	13.3
Cc1ccc(Cn2ncc3c(N4CCN(c5ccc(C)cc5)CC4)ncnc32)cc1	8.18

SMILES	hERG current change (%, negative = inhibition) at 10uM [%]
Cn1c(=O)[nH]c(=O)c2c1nc1n2CCS1	1.6
Cn1c(=O)c2c(nc(N/N=C/c3ccc(OC(=O)c4ccco4)cc3)n2Cc2ccccc2Cl)n(C)c1=O	10.9
O=C(COc1cccc2ccccc12)NNC(=O)c1cnccn1	10.5
CCOc1ccc2[nH]cc(S(=O)(=O)c3ccc(Cl)cc3)c(=O)c2c1	13.6
CCC(C)N1CC23C=CC(O2)C(C(=O)OCc2ccccc2)C3C1=O (stereo not drawn)	5.54
CN(CC(=O)Nc1ccccc1C(F)(F)F)C(=O)CCc1nc2ccccc2c(=O)[nH]1	-13.3
CN(C)S(=O)(=O)c1ccc(C(=O)OCc2nnc(-c3ccccc3)o2)cc1	3.3
CCC(=O)Nc1ccc(S(=O)(=O)N2CCCCC2)cc1OC	0.654
CC(=O)c1cn(C)c(=O)c2ccccc12	7.45
Cc1cc(C)c(C(=O)Cn2nc(C(=O)O)c3ccccc3c2=O)cc1C	24.5
Cc1noc(NS(=O)(=O)c2ccc(NC(=O)COc3ccc(Cl)cc3Cl)cc2)c1C	-21.4
COC1=C(c2ccccc2)C(=O)c2ccccc2C1=O	-14.1
c1ccc(-c2ccnc3ncnn23)nc1	16.2
CN(CC(=O)Nc1ccc(Cl)c(C(F)(F)F)c1)C(=O)CC1Sc2ccccc2NC1=O (stereo not drawn)	-2.38
COc1cccc(-n2c(COc3ccc(C)cc3)nnc2SCC(N)=O)c1	-2.86
O=C1CC(c2ccccc2)Oc2cc(O)cc(O)c21 (stereo not drawn)	1.83
Cc1nn(CC(=O)Nc2ccc(S(N)(=O)=O)cc2)c(=O)c2ccccc12	10.5
Cc1ccc(-n2[nH]c(=O)c(-c3ccccn3)c2C)cc1	12.6
COc1ccc(Cl)cc1NC(=O)CN(C)C(=O)c1cc(C)oc1C	-17.7
CCOc1cc(CNCC2CCCN2CC)cc(Cl)c1OC.Cl (stereo not drawn)	-18
O=c1oc(-c2cccc([N+](=O)[O-])c2)nc2ccccc12	16.8
COc1ccc2nc(N=Nc3ccc(O)c4ccccc34)sc2c1	-5.2
CC1(C)C(C=C(Cl)Cl)C1C(=O)NC(O)C(=O)c1ccccc1 (stereo not drawn)	17.3

SMILES	hERG current change (%, negative = inhibition) at 10uM [%]
Cc1ccc(/C=N/NC(=S)NC2CCS(=O)(=O)C2)cc1 (stereo not drawn)	-0.705
C/C(=N\Nc1nccnc1Cl)c1ccc(O)cc1	17.7
Cc1ccc(CNC(=O)C2CC(c3ccccc3[N+](=O)[O-])=NO2)o1 (stereo not drawn)	-9.83
COCC(C)NC(=S)NC(=O)c1cc(S(=O)(=O)N2CCOCC2)ccc1C (stereo not drawn)	5.17
CCOc1ccc(S(=O)(=O)N(C)CC(=O)NC2CCCC2)cc1	1.6
CC(c1ccco1)N(C(=O)Nc1ccc(Cl)cc1)c1ccccn1 (stereo not drawn)	-11.6
C/C(N)=C(/C#N)C(=O)COC(=O)CCSc1ccccc1Cl	6.29
COc1ccc(CCN2C(=O)C3C4CC(C5C(C(=O)O)=NOC45)C3C2=O)cc1OC (stereo not drawn)	15.4
CCOC(=O)Cn1c(=O)c(-c2ccccc2NCc2ccccc2)nc2ccccc21	14.5
CC(OC(=O)/C=C/c1cccs1)C(=O)Nc1ccc(C(N)=O)cc1 (stereo not drawn)	8.48
CN1CCc2nc(NC(=O)c3cccc(S(=O)(=O)N4CCc5ccccc54)c3)sc2C1	-0.592
C=CCNC(=S)NNC(=O)COc1cccc(Cl)c1	4.69
COc1ccc2nc(NC(=O)C3CCN(C(=O)c4ccc(F)cc4)CC3)sc2c1	-0.23
CCC(=O)Nc1cccc(C2=NOC3(C2)C[C@H](C(N)=O)N(C(=O)CC#N)C3)c1 (stereo partly drawn)	-0.286
CCCCCn1nc(C(=O)N(CC(C)C)c2c(N)n(CCCC)c(=O)[nH]c2=O)c2ccccc2c1=O	-76.6
COc1ccccc1CNC(=O)COC(=O)c1sc(C)nc1C	-10.2
CC1CCN(S(=O)(=O)c2ccc(NC(=O)[C@@H]3CCCN3C(=O)c3cccs3)cc2)CC1	-15.4
COCCN1C=C(C(=O)OC)C(c2ccc(OC)c(OC)c2)C(C(=O)OC)=C1	-9.39
CCC(C)c1ccc(NC(=O)c2cnn3c(C(F)F)cc(C)nc23)cc1 (stereo not drawn)	0.56
Cc1ccc(-c2ccc(C(=O)NCc3ccccc3)o2)c2ccccc12	2.23
COC(=O)c1cc2occc2n1Cc1nc(-c2cccc(Cl)c2)oc1C	12.6
